Test results: the BET-seq Pho4 binding data (Le et al. 2018)
The other results are listed elsewhere or left out. Values were computed here from the reads of four pooled replicates and scatter widely.

These sequences were tested against T1, Pho4 (S. cerevisiae) (UniProt P07270) (assay: relative binding free energy (BET-seq); higher = weaker binding). Details: reference: library average.
T1 sequence: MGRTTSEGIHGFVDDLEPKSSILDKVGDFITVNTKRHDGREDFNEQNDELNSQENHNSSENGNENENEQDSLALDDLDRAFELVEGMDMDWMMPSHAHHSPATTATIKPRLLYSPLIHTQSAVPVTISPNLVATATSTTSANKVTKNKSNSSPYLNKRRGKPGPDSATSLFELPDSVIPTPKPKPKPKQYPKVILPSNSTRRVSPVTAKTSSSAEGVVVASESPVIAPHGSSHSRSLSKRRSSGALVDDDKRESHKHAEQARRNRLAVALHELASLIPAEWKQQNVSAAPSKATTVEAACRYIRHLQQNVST

| Sequence | relative binding free energy [kcal/mol] |
| --- | --- |
| GGCGGCACGTGGTGCT | -0.11 |
| TGGACCACGTGGTGAG | -0.2 |
| GTTAGCACGTGCGAGG | 0.1 |
| TTAACCACGTGGAGTG | -0.08 |
| GTGGACACGTGCTTTG | -0.06 |
| TGATGCACGTGGGGAT | -0.03 |
| GGGCGCACGTGTGTTT | 0.06 |
| CGGGTCACGTGTGGTC | 0.05 |
| TAGGTCACGTGGAGTC | 0.13 |
| CTTGTCACGTGGATGT | 0.14 |
| AGGTTCACGTGATAGC | 0.44 |
| TAGGGCACGTGTGGTC | -0.14 |
| TCGATCACGTGTGGGC | 0.12 |
| CTTAACACGTGGTGAT | -0.02 |
| TGTGGCACGTGACTAT | -0.02 |
| TGGGGCACGTGTTAGA | -0.08 |
| CTGATCACGTGGGGGT | 0.09 |
| TGTCACACGTGAATGG | 0.24 |
| AAAGGCACGTGGAATT | 0.05 |
| ATTTGCACGTGGGTAT | -0.14 |
| TGCTTCACGTGATAAG | 0.31 |
| ATTCTCACGTGGATTT | 0.23 |
| GAGATCACGTGGTTAC | 0.39 |
| AGTAGCACGTGAAGGT | 0.29 |
| GATGGCACGTGCTGTG | -0.17 |

| Sequence | relative binding free energy [kcal/mol] |
| --- | --- |
| GTCATCACGTGTGTAT | 0.12 |
| TTCGTCACGTGGGCCG | 0.08 |
| TGGTTCACGTGCTTCA | 0.22 |
| GGTTGCACGTGCGTGG | 0.04 |
| GGATTCACGTGTTGAT | 0.41 |
| TATTTCACGTGTGAGA | 0.33 |
| TGGTGCACGTGAATAT | 0.21 |
| GGTTGCACGTGCATGG | 0.07 |
| AATTACACGTGGTTGG | 0.12 |
| AGTAGCACGTGGAAGT | -0.02 |
| TGCTTCACGTGAGATG | 0.44 |
| AGGCGCACGTGCAGGG | -0.28 |
| TCGGTCACGTGGGTTG | 0.08 |
| CGGTTCACGTGGTATA | 0.18 |
| CGTCTCACGTGGGGTA | 0 |
| TTCTGCACGTGGTGTT | -0.05 |
| AACGGCACGTGGAGGG | -0.22 |
| TAATGCACGTGGTGCG | -0.09 |
| TGGTCCACGTGCGAGG | -0.03 |
| TTTGCCACGTGGTGTA | -0.22 |
| CGAGCCACGTGAGGTG | 0.28 |
| TACTTCACGTGGAGGA | 0.29 |
| TCTGGCACGTGGTATG | -0.13 |
| AAGGGCACGTGCTATG | -0.2 |
| CTTTACACGTGTTTAA | 0.04 |

| Sequence | relative binding free energy [kcal/mol] |
| --- | --- |
| GGAATCACGTGGTTAA | 0.23 |
| TAGTACACGTGTTGCG | -0.02 |
| TTATGCACGTGTTTAA | 0.03 |
| GGTGACACGTGATGAT | 0.24 |
| AGATGCACGTGGACGT | -0.08 |
| ATAGCCACGTGGAGTT | -0.01 |
| AGTCTCACGTGTGGAT | 0.1 |
| AGGGTCACGTGGGACG | 0.03 |
| TATTTCACGTGCAGGA | 0.22 |
| GTAGGCACGTGATGTA | 0.03 |
| TAGGTCACGTGTTCTT | 0.11 |
| GTTGACACGTGGGCGT | -0.15 |
| AAATGCACGTGTTGAA | 0.09 |
| TTGTGCACGTGAATGT | 0.18 |
| AATGGCACGTGTGCGC | 0.01 |
| GGAGGCACGTGATGCG | 0.14 |
| AGGTGCACGTGCGGGT | 0.02 |
| TTGCTCACGTGGGTTT | 0.16 |
| GTAATCACGTGGTTTC | 0.14 |
| AGGGGCACGTGATATT | -0.01 |
| CTAGGCACGTGAGGGG | 0.02 |
| TGCTACACGTGGGGGA | -0.13 |
| TGGTTCACGTGCGTAG | 0.21 |
| GTTAGCACGTGATGGT | 0.11 |
| GTTCACACGTGTTGGA | 0.07 |

| Sequence | relative binding free energy [kcal/mol] |
| --- | --- |
| TGGATCACGTGAGTCT | 0.24 |
| GGTTTCACGTGGTCAG | 0.26 |
| AGGTTCACGTGTGGGT | 0.24 |
| ATTGTCACGTGCAGGA | 0.12 |
| AGGCGCACGTGAAGTG | 0.06 |
| ATTTCCACGTGTTGGG | 0.23 |
| CGATTCACGTGTGGTA | 0.43 |
| TTGTGCACGTGCTGCG | -0.11 |
| TTGATCACGTGTGGCG | 0.04 |
| AGGTTCACGTGTTACA | 0.25 |
| AGGGGCACGTGTCTAT | -0.1 |
| GTTTACACGTGGTGCG | 0.21 |
| TTATTCACGTGTTTCG | 0.24 |
| TGGTCCACGTGTTTAG | 0.02 |
| ATAAGCACGTGTATGG | -0.08 |
| GCGGGCACGTGCGCGT | -0.09 |
| AAAAGCACGTGGTGAG | -0.03 |
| TAAGCCACGTGTTGTT | -0.07 |
| TGTCTCACGTGGTAGA | 0.06 |
| GTGTGCACGTGGGCTC | -0.1 |
| TTTATCACGTGGTGTT | 0.05 |
| AGAGTCACGTGTGAGA | 0.18 |
| TGGGTCACGTGGCCAG | 0.06 |
| TTTGTCACGTGTGAGT | 0.24 |
| AGCTGCACGTGGATGG | -0.02 |

| Sequence | relative binding free energy [kcal/mol] |
| --- | --- |
| TTTGGCACGTGATACT | -0.02 |
| TTCATCACGTGTTGTA | 0.07 |
| ATTGGCACGTGATCGG | -0.1 |
| TGATGCACGTGGTCAT | -0.19 |
| TGTAACACGTGTGTCG | 0.01 |
| CATGTCACGTGGTAAT | 0.04 |
| GAGGGCACGTGATTGC | 0.05 |
| ATATTCACGTGGCGTT | 0.25 |
| CTGGGCACGTGGTGAG | -0.05 |
| GCTTGCACGTGGTAAG | -0.04 |
| AAGATCACGTGGGGAG | 0.13 |
| GTCAGCACGTGTAGGC | 0.01 |
| GTGTTCACGTGACGTG | 0.3 |
| ATCGTCACGTGGTCGT | 0.05 |
| TGGTCCACGTGAGGGG | 0.22 |
| ATGTACACGTGCGGAG | 0.08 |
| TCGTTCACGTGATAGT | 0.41 |
| GTTGTCACGTGGAATT | 0.29 |
| AGTGTCACGTGACGTG | 0.17 |
| GGTTTCACGTGTGGTG | 0.34 |
| GTTAGCACGTGTAATG | -0.12 |
| GAGGTCACGTGGTATT | -0.07 |
| AGTTGCACGTGTCAGG | 0.02 |
| ATTTTCACGTGCGTGG | 0.11 |
| GTCCTCACGTGTTGGG | 0.21 |

| Sequence | relative binding free energy [kcal/mol] |
| --- | --- |
| CTTGTCACGTGGCCGG | 0.17 |
| AGCGGCACGTGTGAGT | -0.07 |
| AGATACACGTGCTTTT | 0.2 |
| TGAAGCACGTGAGGTG | 0.25 |
| TTGTGCACGTGGCTGG | -0.12 |
| TATATCACGTGGGCTT | 0.07 |
| CGAGTCACGTGGGTCT | 0.13 |
| TGGAGCACGTGGATGC | -0.1 |
| AGTTACACGTGGAGCG | 0.35 |
| TAGAGCACGTGTGATT | -0.11 |
| AATTACACGTGCGCGG | 0.18 |
| AAGTTCACGTGTTGAG | 0.16 |
| GGTTTCACGTGGTCGG | 0.31 |
| GTATACACGTGGGGTC | 0.07 |
| GTTGGCACGTGGATTT | 0.07 |
| GTGTTCACGTGACGTA | 0.31 |
| GGTTGCACGTGACTTT | 0.12 |
| TTAGACACGTGGGAGA | -0.2 |
| TGAAGCACGTGTGTGA | 0 |
| TTGCTCACGTGGTGTA | 0.15 |
| CTGGGCACGTGGAGTT | -0.07 |
